Laboratory results: PubChem BioAssay AID1963576 (National Center for Advancing Translational Sciences (NCATS), 2024)
In all, about 46,000 compounds went through this assay and about 60 (0.1%) were called active. Inconclusive results (about 3%) are left out. The call rests on the fitted dose curve; in most records, active means well fitted inhibition curve with a large enough effect; inconclusive means small, poorly fitted or top-dose-only effect; inactive means no such curve, though single readings can be large or run the other way. This is one part of the list.

test: Primary qHTS assay for Inhibitors of ovarian cancer metastasis using an organotypic tumor microenvironment (TME) model.; further: nearly all actives have a fitted effect of over 65% in size;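 on activity change, negative = inhibition: plate controls were DMSO wells for no effect and tomatine positive control wells for full effect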; conditions: SKOV3ip1-GFP adhesion/invasion on 3D omental model, fluorescence; series mostly up to 45.8 µM; activity change, negative = inhibition: at the top concentration
How it was run: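 Primary human omental fibroblast/mesothelial 3D culture pre-formed 48 h. SKOV3ip1-GFP cells added with compounds (0.36-46 umol/L), incubated 2 h RT/16 h 37 C, fixed; GFP cells quantified at 488/509 nm.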

Structure (SMILES) | activity change, negative = inhibition | outcome
COC(=O)c1ccc(Cn2nnc3c(=O)[nH]c(C4CCCN(S(=O)(=O)c5ccccc5)C4)nc32)cc1 (stereo unspecified) | inactive: 3.2% | 
Cn1cc(C(=O)NCCc2ccc(Cl)cc2)c(=O)c2cc(S(=O)(=O)N3CCCCC3)ccc21 | inactive: -1.04% | 
COc1ccccc1CNC(=O)c1ccc2c(c1)CCN2S(=O)(=O)c1ccc(Cl)cc1 | inactive: 2.69% | 
COC(=O)c1cc(S(=O)(=O)N2CCN(c3ccc(F)cc3)CC2)cn1C |  | inactive
COc1ccc2nc(N(Cc3cccnc3)C(=O)COc3ccccc3)sc2c1 | inactive: 3.27% | 
COc1ccc(NC(=O)NCC2CCN(Cc3ccccc3F)CC2)c(OC)c1 | inactive: -7.35% | 
Cc1ccc(Nc2ncnc3c2nc2n3CCCC2)c(Br)c1 | inactive: -5.92% | 
Nc1nccc(-c2ccc3noc(-c4ccc(Cl)cc4)c3c2)n1 | inactive: -12.8% | 
COc1ccc(N2CCN(C(=O)Cn3nc(Cc4cccnc4)c4ccccc4c3=O)CC2)cc1 | inactive: -3.81% | 
COc1ccccc1CNC(=O)c1cnc2sc(N3CCOCC3)nn2c1=O |  | inactive
CC(=O)Nc1ccc(NS(=O)(=O)c2ccc3[nH]c4c(c3c2)CCCCC4)cc1 | inactive: -10% | 
CCOc1ccc(C(=O)NCC(c2ccc3c(c2)OCO3)N2CCN(c3ccc(F)cc3)CC2)cc1 (stereo unspecified) | inactive: 0.831% | 
COc1ccc(CCN2C(=O)N(c3ccc(F)cc3)C(=O)C2CC(=O)Nc2ccc(OC)cc2)cc1 (stereo unspecified) | inactive: 3.45% | 
CCc1ccccc1NC(=O)N1CCC2(CC1)Oc1ccccc1C(=O)N2Cc1ccccc1F | inactive: 8.32% | 
CCCC(CCC)C(=O)Nc1cccc(-c2nc3cccnc3s2)c1 | inactive: -18.7% | 
CC(=O)N1CCc2cc(S(=O)(=O)NC(CC(C)C)C(=O)NCCc3ccccc3)ccc21 (stereo unspecified) | inactive: 6.9% | 
COc1ccc(Cl)cc1NC(=O)CCN1C(=O)c2ccccc2Sc2ncccc21 | inactive: -7.46% | 
CCOC(=O)c1ccccc1NC(=O)CSc1cc(C)[nH]c(=O)n1 | inactive: -4.62% | 
COc1cc(OC)c(NC(=O)N2CCN3CCCCC3C2)cc1Cl (stereo unspecified) | inactive: -2.98% | 
CC(C)(C)c1cc(C(C)(C)C)c2oc(=O)c(-c3nc4ccc(C(=O)O)cc4[nH]3)cc2c1 | inactive: -8.69% | 
CC1CCN(Cc2c(O)ccc3c(=O)c(-c4ccc(Cl)cc4)c(C(F)(F)F)oc23)CC1 |  | inactive

Structure (SMILES) | activity change, negative = inhibition | outcome
Cc1ccc(CN2CCN(C3CCN(C(=O)c4ccc(C)cc4)CC3)C(=O)C2=O)cc1 | inactive: 3.62% | 
COc1ccc(OC)c(Nc2ncc3c(n2)CCN(Cc2cc(OC)c(OC)c(OC)c2)C3)c1 | inactive: 9.08% | 
COc1cc(-c2nnc(SCC(=O)Oc3ccccc3)o2)cc(OC)c1OC | inactive: -0.531% | 
Cc1cc(C)c2c(=O)cc(CSc3nnc(-c4ccccc4)n3C)[nH]c2c1 | inactive: -4.35% | 
Cc1ccc(Nc2nc3ccccc3c3nnc(C)n23)cc1Cl | inactive: -4.78% | 
CC(C)C(=O)N1c2nc(C(C)C)nn2C2(CCCCC2)[C@@H]2CCCC[C@@H]21 | inactive: 7.66% | 
COc1ccc(OC)c(NC(=O)Cc2c(C)n(C(=O)c3ccc(Cl)cc3)c3ccc(OC)cc23)c1 |  | inactive
COc1ccc(Cl)cc1NC(=O)c1ncn(-c2ccccc2)n1 | inactive: -1.49% | 
CC(=O)c1ccc(NC(=O)CSc2nnc(NC(=O)Nc3ccccc3)s2)cc1 |  | inactive
CCOc1ccc(CCNC(=O)c2ccc(CS(=O)(=O)c3ccccc3C)o2)cc1OCC | inactive: 4.61% | 
COC(=O)c1ccc(Cn2c(SCC(=O)NCc3ccccc3)nc3ccccc32)cc1 | inactive: -2.66% | 
CSCCC(NS(=O)(=O)c1cccs1)C(=O)Nc1ccc(C)c(Cl)c1 (stereo unspecified) | inactive: 0.175% | 
CCOC(=O)c1cnc2ccc(C(=O)OC)cc2c1Nc1ccc(N2CCOCC2)cc1 | inactive: 1.31% | 
COc1cc(CN(C(=O)c2ccc(OC(C)C)cc2)C2CCS(=O)(=O)C2)cc(OC)c1OC (stereo unspecified) | inactive: -14.3% | 
CCc1ccccc1NC(=O)c1sc2nc3n(c(=O)c2c1C)CCC3 | inactive: 2.69% | 
Cc1ccc(C)c(Cn2c(=O)n(Cc3ccco3)c(=O)c3oc4ccccc4c32)c1 | inactive: -1.53% | 
CCc1ccc(NC(=O)Cn2c(=O)n(-c3ccccc3)c(=O)c3ccc(C(=O)NCc4ccc5c(c4)OCO5)cc32)cc1 | inactive: -2.39% | 
CC(=O)c1cccc(NC(=O)CN2C(=O)c3cccnc3Sc3ccccc32)c1 | inactive: -0.355% | 
CN(C)c1cc2c(cc1NC(=O)c1ccc(F)cc1)n(C)c(=O)n2C | inactive: -3.35% | 
COc1cccc(Cn2c(C)c(CNCc3ccccc3Cl)c(C(=O)O)c2C)c1 | inactive: 9.03% | 
CCOc1ccc(CNC(=O)c2ccc(NC(=O)N3CCSc4ncccc43)cc2)cc1OC |  | inactive

Structure (SMILES) | activity change, negative = inhibition | outcome
O=C(NCCCc1nc2ccccc2n1Cc1ccccc1)C1CCCCC1 | inactive: 6.27% | 
Cc1ccccc1OCc1ccc(-c2nc(C#N)c(N3CCN(c4ccccc4)CC3)o2)o1 | inactive: -8.68% | 
CC(C)CCNC(=O)C1CCN(S(=O)(=O)c2cccc3nsnc23)CC1 |  | inactive
CNC(=O)C1CCN(Cc2cc3ccccc3n2Cc2cccc(C)c2)CC1 | inactive: 0.646% | 
Cc1cccc(-c2nnn3c2nc(NCc2ccccc2)c2ccccc23)c1 | inactive: -3.03% | 
CCc1ccc(-c2cc(C)no2)cc1S(=O)(=O)Nc1ccc(C)cn1 | inactive: -9.72% | 
Cc1ccc(-c2cn3c(n2)sc2cc(C(=O)NCc4cccs4)ccc23)c(C)c1 | inactive: -5.89% | 
CCN(CC)CCCNC(=O)CSc1nc2nc(C)c(Cc3c(F)cccc3Cl)c(C)n2n1 | inactive: -8.4% | 
Cc1ccc(N(Cc2cc3ccccc3[nH]c2=O)C(=O)c2cccc(Cl)c2)cc1 | inactive: 0.398% | 
CCc1ccc(-n2nc(CO)c(C(=O)NCC(c3ccccc3)c3ccccc3)n2)cc1 | inactive: -5.72% | 
Cc1ccc(CSc2nnc(-n3c(=O)c(C#N)cc4c(=O)n5cc(C)ccc5nc43)s2)cc1 | inactive: 0.319% | 
COc1ccc(-c2noc(CSc3nc(C)cc(=O)[nH]3)n2)cc1OC | inactive: -14.8% | 
CC1=C(C(N)=O)C(c2cccc(C)c2)n2nc(-c3cccc(C)c3)nc2N1 (stereo unspecified) | inactive: -1.97% | 
Cc1ccc(C)c(NC(=O)Cn2c(=O)n(Cc3ccc4c(c3)OCO4)c(=O)c3oc4ccccc4c32)c1 | inactive: 2.42% | 
CCCc1nc2c(C)cc(-c3nc4ccccc4n3C)cc2n1Cc1ccc(-c2ccccc2C(=O)O)cc1 | inactive: 4.33% | 
CC(C)c1ccc2occ(CC(=O)Nc3ccccc3Cl)c2c1 | inactive: -14.1% | 
CC(C)NC(=O)C(c1ccccc1)N1Cc2ccccc2C1=O (stereo unspecified) | inactive: 15.3% | 
COc1ccc(Cn2ccc3nc(C)c(C(=O)N4CCN(c5ccccc5OC)CC4)cc3c2=O)cc1 | inactive: -2.22% | 
COc1ccc(OCC2c3cc(OC)c(OC)cc3CCN2C(=O)COc2ccc(Cl)cc2Cl)cc1 (stereo unspecified) |  | inactive
